Data: PubChem BioAssay AID360 (National Center for Advancing Translational Sciences (NCATS), 2006)
Out of some 48,000 compounds screened, about 550 (1.1%) were called active. Roughly 4% stayed inconclusive and do not appear here. Cut-off read from the data, not from the text of the source: active = potency below about 15 µM; inconclusive = mostly about 16 µM to 33 µM; inactive = weaker than that. Some of the results follow.

target: Lysosomal acid glucosylceramidase (Homo sapiens) (UniProt P04062); assay: Glucocerebrosidase; conditions: purified enzyme, resorufin glucoside fluorescence (screen aimed at inhibitors), 20 min;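 note: the screen sought inhibitors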
Method in brief: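 Wild-type enzyme at 0.2 nM final in 50mM citric acid/KH2PO4, 10mM sodium taurocholate, 0.01% tween-20, pH 5.9, with resorufin beta-D-glucopyranoside at 30 uM final. Compounds titrated, 20 min at RT, red fluorescence read; AC50 from titration.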
Potency is the fitted concentration of half-maximal effect.

Sequence of UniProt P04062 (P04062 whole entry, looked up): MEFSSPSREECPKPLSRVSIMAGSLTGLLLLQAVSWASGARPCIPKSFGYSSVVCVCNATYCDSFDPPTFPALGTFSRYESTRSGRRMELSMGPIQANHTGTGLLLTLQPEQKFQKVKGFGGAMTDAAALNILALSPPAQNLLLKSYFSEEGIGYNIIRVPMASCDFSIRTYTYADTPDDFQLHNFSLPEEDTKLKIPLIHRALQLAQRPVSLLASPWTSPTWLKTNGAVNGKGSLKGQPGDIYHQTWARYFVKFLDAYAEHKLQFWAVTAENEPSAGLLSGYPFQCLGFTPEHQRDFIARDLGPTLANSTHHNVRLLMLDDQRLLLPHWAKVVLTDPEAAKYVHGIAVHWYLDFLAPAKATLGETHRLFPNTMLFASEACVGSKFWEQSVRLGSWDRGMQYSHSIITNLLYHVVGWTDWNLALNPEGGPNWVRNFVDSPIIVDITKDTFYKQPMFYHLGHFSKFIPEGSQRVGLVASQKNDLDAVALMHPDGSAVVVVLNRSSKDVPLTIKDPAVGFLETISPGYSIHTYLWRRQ

Potency, active:
c1coc(CNc2nc(N3CCCCC3)nc3ccccc23)c1 9.65 µM

Potency, inactive:
CC(=O)Nc1c2c(nn1-c1ccc(C)cc1C)CSC2 > 76.9 µM
C=CCOc1ccc(NC(=O)C2CC(=O)N(C(C)C)C2)cc1 (centres undefined) > 76.9 µM
CC(=O)c1cccc(NC(=O)N2CCC(c3nnc(SCC(N)=O)n3C)CC2)c1 > 76.9 µM
COc1ccccc1N1CCN(C(=O)c2nn(-c3ccccc3OC)c(=O)c3ccccc23)CC1 > 76.9 µM
CCCCN(CC)Cc1ccc(CNC(=O)Nc2ccc(OC)cc2OC)o1 > 76.9 µM
COC(=O)CN(c1nc(C)cc(OC)n1)S(=O)(=O)c1ccc(C)cc1 > 76.9 µM
O=C1CSC2(CCCCC2)N1CCO > 76.9 µM
CC(C)OCCCNC(=O)c1ccc(NC(=O)C2CCCO2)cc1 (centres undefined) > 76.9 µM
Cc1ccccc1CSCCNC(=O)CN(c1ccc2c(c1)OCO2)S(C)(=O)=O > 76.9 µM
Cc1ccc(C(=O)CSc2nnc(-c3ccccc3N)n2C)cc1 > 76.9 µM
CN1CCc2c(sc(/N=C/c3cccs3)c2C(N)=O)C1 > 76.9 µM
COCCn1c(-c2ccccc2)nc2oc3ccccc3c(=O)c2c1=O > 76.9 µM
COCC(=O)Nc1ccc(C)c(Cl)c1 > 76.9 µM
CCn1c2ccccc2c2cc(C3C(C#N)=C(N)Oc4n[nH]c(COC)c43)ccc21 (centres undefined) > 76.9 µM
N#Cc1c2n(c(=S)n(-c3ccccn3)c1=O)CCCCC2 > 76.9 µM
O=C(O)CCC(=O)N1CCc2cc(S(=O)(=O)N3CCCCC3)ccc21 > 76.9 µM
Cc1onc(-c2ccccc2)c1C(=O)NC(C)C1CCCO1 (centres undefined) > 76.9 µM
O=C(Nc1ccccc1N1CCN(C(=O)c2ccccc2)CC1)c1cc2ccccc2o1 > 76.9 µM
CC1CCC(NC(=O)C2CCN(C(=O)NC3CCCCC3)CC2)CC1 (centres undefined) > 76.9 µM
Cc1nn(-c2cc(N3CCCCC3)ccc2N)c(=O)c2ccccc12 > 76.9 µM
CCSc1ccccc1C(=O)N1CCN(c2ccccc2F)CC1 > 76.9 µM
O=C(O)c1cccnc1-c1ncccc1C(=O)O
CCC(=O)N(Cc1ccco1)c1nc(-c2cc(OC)ccc2OC)cs1 > 76.9 µM
COc1ccc2cc(C(c3nnnn3C(C)(C)C)N3CCSCC3)c(=O)[nH]c2c1 (centres undefined) > 76.9 µM
COc1cc(NC(=O)CSc2nnc3n2C(C)(C)Cc2ccccc2-3)cc(OC)c1 > 76.9 µM
COCCN1C(=O)C(=O)/C(=C(/O)c2cccc(OC)c2)C1c1ccc(C)o1 (centres undefined) > 76.9 µM
O=C(CN1CCC(c2nc3ccccc3s2)CC1)NCc1cccs1 > 76.9 µM
Cc1ccc2c(CC(=O)NCC3COc4ccccc4O3)coc2c1 (centres undefined) > 76.9 µM
CN1CCN(c2nc3c(c(=O)[nH]c(=O)n3C)n2CCCSc2ncccn2)CC1 > 76.9 µM
CC(C)CC(=O)Nc1ccccc1-c1nnn(CC(=O)N2CCOCC2)n1 > 76.9 µM
COc1ccc2c(c1)cc1n2CCN2CCCN=C12 > 76.9 µM
CCOC(=O)C1CCCN(C(=O)c2cn(C)c3ccc(S(=O)(=O)N4CCCC4)cc3c2=O)C1 (centres undefined) > 76.9 µM
COC(=O)Nc1ccc(S(=O)(=O)N2CCCC(C(=O)Nc3cccc4c3OCCO4)C2)cc1 (centres undefined) > 76.9 µM
O=C(NCC1CCCO1)c1ccccc1-c1nc(-c2ccc(F)cc2)no1 (centres undefined) > 76.9 µM
C=CCn1c(-c2cc(OC)c(OC)c(OC)c2)n[nH]c1=S > 76.9 µM
Cc1ccc2c(c1)c1c3n2CC(=C2C(=O)OC(C)(C)OC2=O)NC3CCC1 (centres undefined) > 76.9 µM
CS(=O)(=O)N1CCc2cc(S(=O)(=O)N3CCN(Cc4ccc5c(c4)OCO5)CC3)ccc21 > 76.9 µM
Cc1ccc(S(=O)(=O)N2CCC(C(=O)O)CC2)cc1C(=O)O > 76.9 µM
Cc1ccccc1N(CC(=O)NCC1CCCO1)C(=O)C1(C)CC(=O)N=C2C=CC=CN21 (centres undefined) > 76.9 µM
COC(=O)CSc1nnc(CNC(=O)c2ccc(S(=O)(=O)N3CCCCC3)cc2)n1C > 76.9 µM
CCCCCn1c(=NC(=O)c2ccco2)c(C(=O)OCC)cc2c(=O)n3ccccc3nc21 > 76.9 µM
CCOCc1nnc(NS(C)(=O)=O)s1 > 76.9 µM
COc1ccc(Cn2c(C3CC3)nc3ccc(NC(=O)C4CC4)cc3c2=O)cc1 > 76.9 µM
Cc1nnc2n(Cc3ccccc3)c(=O)c3c4c(sc3n12)COC(C)(C)C4 > 76.9 µM
COc1ccccc1NS(=O)(=O)c1ccc(C)c(C(=O)NCC2CCCO2)c1 (centres undefined) > 76.9 µM
Cc1cccc(NC(=O)CCN2CC(C)OC(C)C2)c1 (centres undefined) > 76.9 µM
NC(=O)C1CCN(Cc2nnnn2Cc2ccco2)CC1 > 76.9 µM
C=CCSc1nnc(NC(=O)CSc2nc3ccccc3o2)s1 > 76.9 µM
Cc1ccc(NC(=O)CCC(=O)O)cc1F > 76.9 µM
COCC(=O)N1CCCc2ccccc21 > 76.9 µM
Cc1ccc(N2CC(C(=O)Nc3ccc(S(=O)(=O)N4CCCC4)cc3)CC2=O)cc1 (centres undefined) > 76.9 µM
COC(=O)c1ccccc1COn1c(=O)c(C)[n+]([O-])c2ccccc21 > 76.9 µM
O=C1OC(Nc2ccc3c(c2)OCO3)c2ccccc21 (centres undefined) > 76.9 µM
O=C(c1ccc2c(c1)C(=O)N(c1ccc(Cl)cc1)C2=O)N1CCN(c2ccccn2)CC1 > 76.9 µM
O=C(O)c1ccc(COc2cccc(CO)c2)cc1 > 76.9 µM
CCCNc1nc2c(c(=O)n(C)c(=O)n2C)n1Cc1cccc(C)c1 > 76.9 µM
O=C(NCc1ccccn1)Nc1ccc(Cl)c(Cl)c1 > 76.9 µM
CCNC(=O)NC(=O)COC(=O)CNC(=O)COc1ccccc1 > 76.9 µM
O=C(Nc1nnc(-c2ccco2)s1)C1CC1 > 76.9 µM
CN(C)c1cccc2c(S(=O)(=O)Nc3ccccn3)cccc12 > 76.9 µM
CC(=O)Nc1cccc(NC(=O)CSc2nnc(Cc3cccn3C)n2-c2ccc(C)cc2)c1 > 76.9 µM
CCc1ccccc1NC(=O)CN(C)C(=O)CN1C(=O)NC2(CCCCCC2)C1=O > 76.9 µM
Cc1ccc(NC(=O)N2CCCC2C(=O)NCCC2=CCCCC2)cc1 (centres undefined) > 76.9 µM
O=C(NCC1c2ccccc2CCN1C(=O)CN1CCOCC1)C1CCCCC1 (centres undefined) > 76.9 µM
Cn1c(=O)c2c(nc(CN3CCN(CCO)CC3)n2Cc2cccc3ccccc23)n(C)c1=O > 76.9 µM
Cc1cc(=O)[nH]c(SCC(=O)N2CCC(C(N)=O)CC2)n1 > 76.9 µM
CCc1ccc(CCC(=O)Nc2sc3c(c2C#N)CCCC3)o1 > 76.9 µM
COc1ccc2c(C(=O)CN3CC(C)OC(C)C3)c[nH]c2c1 (centres undefined) > 76.9 µM
CC(NC(=O)c1cccc(N2CCCC2=O)c1)c1ccc2c(c1)OCCO2 (centres undefined) > 76.9 µM
O=C(Nc1ncnc2c1ncn2C1OC(COC(=O)c2ccccc2)C(F)C1O)c1ccccc1 (centres undefined) > 76.9 µM
Cn1nc(-c2ccc(N3CCOCC3)c(NS(=O)(=O)c3ccccc3)c2)c2ccccc2c1=O > 76.9 µM
O=C(NC12CC3CC(CC(C3)C1)C2)N1CCN(C(=O)C2CCCO2)CC1 (centres undefined) > 76.9 µM
O=C(CSc1nnc(-c2ccccn2)n1Cc1ccccc1)Nc1ccc2c(c1)OCO2 > 76.9 µM
CCSc1nnc(NC(=O)c2csc(C)c2)s1 > 76.9 µM
COC(=O)c1ccc(CSc2nnc(NCc3ccccc3)s2)o1 > 76.9 µM
COCCN(C(=O)Cn1nnc2ccccc21)C(C(=O)NC1CCCC1)c1cccc(OC)c1OC (centres undefined) > 76.9 µM
Clc1ccccc1-c1nn2c(-c3ccncc3)nnc2s1 > 76.9 µM
CC(C)Sc1nc(NCc2ccco2)c2c3c(sc2n1)COC(C)(C)C3 > 76.9 µM
CCn1nnc(NC(=O)CSc2ccc(Cl)cc2)n1 > 76.9 µM
COc1ccc(-c2cc(C(=O)N(C)Cc3ccccc3)no2)cc1OC > 76.9 µM
CC(C)C(=O)N(c1ccc2oc(=O)sc2c1)S(=O)(=O)c1cccs1 > 76.9 µM
O=C(NC1CCCc2ccccc21)C1CCN(S(=O)(=O)c2cnc[nH]2)CC1 (centres undefined) > 76.9 µM
O=C(c1ccc(C(=O)N2CCOCC2)nc1)N1CCOCC1 > 76.9 µM
Cc1nc(SCn2nnc3ccccc3c2=O)c2c(C)c(C)sc2n1 > 76.9 µM
O=C(Cn1nnc(-c2ccc(CN3CCOCC3)cc2)n1)N1CCCc2ccccc21 > 76.9 µM
c1nc(N2CCNCC2)c2sc3nc(N4CCOCC4)c4c(c3c2n1)CCC4 > 76.9 µM
COc1cc(C(=O)Nc2cccc(-c3nc4ncccc4o3)c2C)cc(OC)c1OC > 76.9 µM
CCCC(=O)Nc1cc(C)c(NC(=O)c2ccncc2)cn1 > 76.9 µM
